# About 230 (0.21%) of roughly 110,000 compounds showed an effect of 50% or more. The list shows a part of the results.
# Target: DPAP1 (Plasmodium falciparum, UniProt Q8IIJ9)
# Assay: primary screen, percent inhibition; read by cleavage of a fluorogenic dipeptide substrate; higher = more effect of the substance
# Parameters: species or system P. falciparum D10 trophozoite lysates; single well
# 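Also: 30 min substrate incubation versus DMSO and 10 µM JCP410 controls.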
# Chain of DPAP1 (Q8IIJ9 whole entry, looked up): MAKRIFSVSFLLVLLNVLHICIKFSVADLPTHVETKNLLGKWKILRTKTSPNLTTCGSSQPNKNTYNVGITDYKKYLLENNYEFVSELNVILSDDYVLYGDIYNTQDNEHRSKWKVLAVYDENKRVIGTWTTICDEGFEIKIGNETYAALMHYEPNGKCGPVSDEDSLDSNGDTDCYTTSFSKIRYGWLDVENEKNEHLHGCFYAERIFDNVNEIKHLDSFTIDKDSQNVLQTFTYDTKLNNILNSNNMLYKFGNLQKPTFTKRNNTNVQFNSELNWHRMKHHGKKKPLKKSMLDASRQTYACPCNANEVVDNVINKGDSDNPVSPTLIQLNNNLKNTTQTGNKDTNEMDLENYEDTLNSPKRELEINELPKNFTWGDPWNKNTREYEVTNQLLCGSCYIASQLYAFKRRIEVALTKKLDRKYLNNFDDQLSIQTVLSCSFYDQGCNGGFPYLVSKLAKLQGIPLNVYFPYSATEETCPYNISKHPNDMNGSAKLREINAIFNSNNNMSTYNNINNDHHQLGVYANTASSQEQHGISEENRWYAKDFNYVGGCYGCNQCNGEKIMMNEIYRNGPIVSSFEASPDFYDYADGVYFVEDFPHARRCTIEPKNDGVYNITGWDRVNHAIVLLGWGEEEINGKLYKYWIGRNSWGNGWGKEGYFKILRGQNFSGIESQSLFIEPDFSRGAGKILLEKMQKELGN
row,Compound,% Inhibition @ 10 uM
1,CC(=O)N/C(=C\c1ccc(F)cc1)C(=O)OCc1ccccc1,-0.597%
2,Cc1ccc(C2CC(c3ccccc3OC(F)F)Nc3ncnn32)cc1 (centres unmarked),-1.48%
3,COc1ccc(N(CC(=O)Nc2ccc(CC#N)cc2)S(=O)(=O)c2ccc(C)cc2)cc1,-1.95%
4,CCCCCCN1CC(=O)C(c2nc3cc(C)ccc3[nH]2)=C1N,3.74%
5,O=C(O)/C=C\C(=O)Nc1ccc(O)c(C(=O)O)c1,1.2%
6,CCC(CC)NCc1cccc([N+](=O)[O-])c1,-7.5%
7,CC(C)C[C@H](NC(=O)c1cn2c(n1)sc1ccccc12)C(=O)NCC#N,4.33%
8,NC(=O)c1ccc(NC(=O)c2ccccc2)cc1,-1.98%
9,COc1ccc(C2=CC(c3ccco3)n3ncnc3N2)cc1 (centres unmarked),-1.4%
10,CO/C(O)=C1\C(C)=NC2=C(C(=O)CCC2)C1c1cccc(F)c1 (centres unmarked),-5.44%
11,Cc1cccc(-c2cc(C(=O)NCc3ccc(S(N)(=O)=O)cc3)c3ccccc3n2)c1,0.431%
12,COc1cc(Br)cc(NC(=O)c2ccc([N+](=O)[O-])cc2)c1,-0.268%
13,COc1ccc(C2CC(c3ccc(C)cc3)=NN2C(=O)CCC(=O)O)cc1OC (centres unmarked),15.8%
14,O=S(=O)(NC1CCCCC1)c1ccc(S(=O)(=O)N(Cc2ccccc2)Cc2ccco2)cc1,-1.31%
15,N#CC1=C(N)N(c2c(F)cccc2F)C2=C(C(=O)CCC2)C1c1ccccc1 (centres unmarked),6.59%
16,Cc1nc2cccnc2n1-c1ccc(CC(=O)NCCC2=CCCCC2)cc1,2.63%
17,CCCN(Cc1cccc([N+](=O)[O-])c1)CC1CC1,-2.21%
18,O=C(c1ccc(NC(=O)C(F)(F)F)cc1)c1ccc(NC(=O)C(F)(F)F)cc1,2.33%
19,O=C(NCCC1=CCCCC1)c1ccc2c(c1)ncn2-c1cccc(F)c1,4.35%
20,CCN1C(=O)C(O)(CC(=O)c2ccccc2)c2ccccc21 (centres unmarked),20.9%
21,CN(C)CCCN(CCCN(C)C)Cc1ccc(F)cc1,-7.56%
22,COCCCNC(=O)Cn1ncc2c3ccccc3n(Cc3ccc(F)cc3)c2c1=O,-1.58%

row,Compound,% Inhibition @ 10 uM
1,Cc1nc2c(sc3nc4c(cc32)COC(C)(C)C4)c(=O)n1CC(C)C,4.78%
2,COc1ccc(COCC(O)CN2CCN(C)CC2)cc1OC (centres unmarked),4.23%
3,COc1ccc(-c2cc(C(=O)N3CCCN(Cc4ccc(F)cc4)C3)[nH]n2)cc1,-3.5%
4,CC(C)(C)c1ccc(C(=O)NCCN2CCCC2)cc1,4.78%
5,Brc1ccc(CN2CCN(c3ccccn3)CC2)o1,1.63%
6,O=C(NCCCN1CCC(Cc2ccccc2)CC1)c1nnc(-c2cccc(Cl)c2)o1,-1.14%
7,O=C(NCC1(c2ccccc2)CCCC1)c1noc2c1COc1ccccc1-2,47.2%
8,O=C(CSCc1ccco1)c1ccccc1,8.75%
9,Cn1c2ccccc2c2c(C(=O)NCc3ccc4c(c3)OCO4)cn(C3CCCC3)c(=O)c21,-3.39%
10,COP(=O)(OC)C(Nc1ccc(C)cc1)c1c[nH]c2ccccc12 (centres unmarked),-0.744%
11,NC(=O)CS(=O)(=O)c1ccc(Cl)cc1,-1.29%
12,COc1cc2c(cc1OC)C(c1cc(Cl)ccc1O)NCC2 (centres unmarked),1.57%
13,C/C(Cl)=C\Cn1c(N2CCNCC2)nc2c1c(=O)[nH]c(=O)n2C,-2.41%
14,COc1ccc(Cc2nnc(C(=O)NCC3CCCO3)o2)cc1OC (centres unmarked),-5.05%
15,O=C(Nc1ccc(S(=O)(=O)N2CCOCC2)cc1)c1cccs1,-2.78%
16,CCN(C(=O)COc1ccc(Cl)cc1Br)c1ccccc1,-3.26%
17,Cc1oc(-c2cccs2)nc1CSc1nncn2c1cc1sccc12,-6.89%
18,COCCNC1C2CC3CC(C2)CC1C3 (centres unmarked),3.18%
19,CCc1ccc(-c2[nH]nc3nc(-c4cccs4)cc(C(=O)O)c23)cc1,5.62%
20,CCCc1cc(N2CCN(C(=O)c3ccco3)CC2)n2c(nc3ccccc32)c1C#N,-0.85%
21,Cc1cc(C)c2c(c1)OC(N1CCOCC1)C(C)(C)C2O (centres unmarked),-1.65%
22,c1nc(N2CCCCCC2)c2c3c(sc2n1)CCCC3,0.774%

row,Compound,% Inhibition @ 10 uM
1,CC(=O)Nc1ccc(Nc2nc(C)c(C(C)=O)s2)cc1,1.92%
2,O=C(Cc1ccccc1)Nc1nnc(COc2ccccc2)s1,-2.41%
3,CC1CC(=O)NN=C1c1ccc(N)c(N)c1 (centres unmarked),-4.8%
4,CCCCC(=O)Nc1cccc2c(NC(=O)CCCC)cccc12,-4.4%
5,CCOC(=O)c1cnc2c(C)cc(Cl)cc2c1NCCCO,5.17%
6,Cn1c2ccccc2c2nnc(SCC(=O)Nc3sc4c(c3C#N)CCCC4)nc21,-3.48%
7,COCCNC(=O)Nc1cn(CC(C)C)c(=O)c2ccccc12,-4.78%
8,COc1ccc(NC(=O)CN(C2CCCCC2)S(C)(=O)=O)cc1OC,0.709%
9,O=C(NCc1ccccc1)c1ccc(CS(=O)Cc2ccccc2Cl)o1 (centres unmarked),-1.28%
10,Cn1c(=O)c2c(nc(NCc3ccccc3)n2CC(O)COc2ccccc2)n(C)c1=O (centres unmarked),-1.11%
11,CCOc1ccc(/C=C2/Sc3ccccc3C2=O)cc1OCC,4.41%
12,CC1CN(Cc2nc3c(c(=O)n(C)c(=O)n3C)n2CC(=O)c2ccccc2)CC(C)O1 (centres unmarked),-1.43%
13,CCCc1ccc(-c2c(C)sc(NC(=O)c3ccnn3C)c2C#N)cc1,-1.98%
14,CC(NC(=O)c1ccc(CS(=O)(=O)c2ccc(Cl)cc2)o1)c1ccc2c(c1)OCCO2 (centres unmarked),2.35%
15,CC(C)c1ccc(-n2cccc2/C=C2\C(=N)N3N=CSC3=NC2=O)cc1,0.208%
16,CCC(=O)Nc1ncc2c(n1)CC(c1ccc(C)cc1)CC2=O (centres unmarked),2.36%
17,CN1CCN(C(=O)CCC(=O)O)CC1,-1.76%
18,CC1CCCC(C)N1C(=O)C1CC(c2ccccc2F)=NO1 (centres unmarked),-2.16%
19,CCCCCCCCCP(=O)(O)c1ccccc1,-2%
20,COc1ccc(C2Nc3ccccc3C(=O)N2c2ccccc2)cc1CN1CCOCC1 (centres unmarked),-9.66%
21,COc1ccccc1NC(=O)c1c(-c2ccccc2Cl)noc1C,-0.425%
